Test results as given in article PMC4336329 (PLoS ONE, 2015).
Out of some 310,000 compounds screened, about 2,200 (0.71%) showed an effect of 50% or more. The effect is printed as a negative number. The list shows a part of the results.

Target: human ether-à-go-go-related gene (hERG) potassium channel (human, UniProt Q12809)
Experiment: primary screen, population patch clamp on CHO cells stably expressing hERG

human ether-à-go-go-related gene (hERG) potassium channel, sequence (Q12809 whole entry, looked up): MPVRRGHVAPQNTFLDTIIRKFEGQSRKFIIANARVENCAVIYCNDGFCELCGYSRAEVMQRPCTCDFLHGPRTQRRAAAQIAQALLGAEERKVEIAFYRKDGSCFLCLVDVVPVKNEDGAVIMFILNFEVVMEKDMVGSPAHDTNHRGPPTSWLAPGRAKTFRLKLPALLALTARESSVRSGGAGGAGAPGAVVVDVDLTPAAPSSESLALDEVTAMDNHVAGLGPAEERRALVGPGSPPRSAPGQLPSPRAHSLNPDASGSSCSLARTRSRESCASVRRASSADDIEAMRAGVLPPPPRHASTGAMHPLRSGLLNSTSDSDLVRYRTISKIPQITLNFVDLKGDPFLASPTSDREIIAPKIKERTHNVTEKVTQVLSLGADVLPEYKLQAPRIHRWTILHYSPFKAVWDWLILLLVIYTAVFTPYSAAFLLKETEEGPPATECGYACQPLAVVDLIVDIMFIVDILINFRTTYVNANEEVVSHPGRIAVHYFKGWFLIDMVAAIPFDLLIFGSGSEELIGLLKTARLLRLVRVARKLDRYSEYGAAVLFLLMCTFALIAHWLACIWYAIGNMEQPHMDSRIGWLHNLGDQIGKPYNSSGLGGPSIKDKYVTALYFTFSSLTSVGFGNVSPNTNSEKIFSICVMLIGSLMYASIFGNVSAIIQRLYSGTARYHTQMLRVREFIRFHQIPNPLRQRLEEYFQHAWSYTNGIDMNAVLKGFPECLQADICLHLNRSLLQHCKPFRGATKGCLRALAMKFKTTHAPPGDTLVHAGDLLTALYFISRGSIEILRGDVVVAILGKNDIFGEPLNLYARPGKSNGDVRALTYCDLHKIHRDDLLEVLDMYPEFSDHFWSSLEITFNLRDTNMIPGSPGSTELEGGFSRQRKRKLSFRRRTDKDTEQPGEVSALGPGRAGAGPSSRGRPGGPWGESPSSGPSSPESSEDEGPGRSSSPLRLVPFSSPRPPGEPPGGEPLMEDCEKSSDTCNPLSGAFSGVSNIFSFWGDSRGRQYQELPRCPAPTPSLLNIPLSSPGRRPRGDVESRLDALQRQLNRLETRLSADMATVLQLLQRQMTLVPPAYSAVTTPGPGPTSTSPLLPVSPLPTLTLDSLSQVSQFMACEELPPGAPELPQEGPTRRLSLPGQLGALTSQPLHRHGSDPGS

SMILES | hERG current change (%, negative = inhibition) at 1uM [%]
CSc1ncccc1C(=O)OCC(=O)c1cc(C)n(CC2CCCO2)c1C (stereo not shown) | 6.63
CC(=O)Oc1ccc(/C=N/NS(=O)(=O)c2ccc(C)cc2)c(OC(C)=O)c1 | 9.55
O=C(c1ccc(Cl)c([N+](=O)[O-])c1)N(Cc1ccc(Cl)cc1)C1CCS(=O)(=O)C1 (stereo not shown) | 1.54
CCn1c(=O)ccc2cc([N+](=O)[O-])ccc21 | 4.99
O=C(O)CN1C(=O)C2C3CC(C2C1=O)C1C(c2ccccc2)c2sc(=O)[nH]c2SC31 (stereo not shown) | 14
CCOc1ccc(C2C(C(=O)Nc3ccc(F)cc3)=C(C)Nc3nc(CCCO)nn32)cc1 (stereo not shown) | 2.86
Cc1ccc(S(=O)(=O)CCc2ccncc2)cc1 | -3.31
O=C(c1cccs1)N1CCN(c2cccc(Cl)c2)CC1 | 11.4
CCOc1ncccc1C(=O)NCc1ccccc1F | -3.24
C=CCc1ccc(OCC(O)CN2CCN(c3ccccc3)CC2)c(OC)c1.Cl (stereo not shown) | -33.7
O=C(/C=C/c1c(Cl)cccc1Cl)N1CCOCC1 | 27.1
Cn1cccc1C(=O)OCC(=O)N1CC(=O)Nc2ccccc21 | 12.9
Cc1ccc(CNC(=O)CCCC(=O)c2ccccc2)cc1 | 2.33
CNCC(O)c1cc(F)c(OCc2ccccc2)c(OCc2ccccc2)c1F (stereo not shown) | 14.7
Cc1ccc(C(=O)Oc2coc(CSc3nnc(NC(=O)c4cccs4)s3)cc2=O)cc1C | -8.71
Cn1cc(S(=O)(=O)N2CCN(c3ccccc3)CC2)c(=O)n(C)c1=O | 8.79
Cc1cc(C)nc(NS(=O)(=O)c2ccc(NC(=O)C3(c4ccccc4)CCCC3)cc2)n1 | 3.51
Cc1cc(NC(=O)CSc2nnc(C3CC3)n2C)no1 | 14.8
O=C(COC(=O)[C@H](Cc1ccccc1)N1C(=O)c2ccccc2C1=O)Nc1ccc2c(c1)OCO2 | 1.25
Cn1c(Cc2cccs2)n[nH]c1=S | 2.77
C/C(CCc1ccc2c(c1)OCO2)=N\NC(=O)c1ccc(C)cc1C | 13.3
CCOc1cc(/C=N\NC(=O)c2ccc(NC(=O)C(C)(C)C)cc2)ccc1OC(=O)c1ccc(OC)cc1 | 18.1

SMILES | hERG current change (%, negative = inhibition) at 1uM [%]
C/C(=N\NS(=O)(=O)c1ccc(C)c([N+](=O)[O-])c1)c1cc2ccccc2o1 | -1
COc1ccc(/C=C/C(=O)Nc2ccc(OC)cc2[N+](=O)[O-])cc1 | -0.381
C=CCNC(=O)C1CC(=O)N(c2ccc(C)cc2)C1 (stereo not shown) | 1.4
CC(=O)O[C@H]1C[C@@]2(C)[C@@H](C[C@@H](O)[C@H]3[C@@]4(C)CC[C@@H](O)[C@@H](C)C4CC[C@@]32C)/C1=C(\CCC=C(C)C)C(=O)[O-].[Na+] (stereo partly shown) | 1.43
COc1ccc(Cl)cc1C(=O)Nc1ccc(S(N)(=O)=O)cc1 | 7.83
CSCCC(NC(=O)COc1ccccc1)C(=O)OC(C)C(=O)Nc1ccccc1C (stereo not shown) | 6.5
Clc1ccc(CN2CCCCCCC2)cc1 | -1.46
CN(C)CC/C=C1/c2ccc(F)cc2Sc2ccc(Cl)cc21.Cl | 9.94
Cc1ccc(C(=O)N2CCCC(C(=O)c3ccc(Oc4ccccc4)cc3)C2)cn1 (stereo not shown) | 3.62
O=C1Nc2ccc(F)cc2C12Nc1ccccc1-c1nnc(SCc3ccccc3)nc1O2 (stereo not shown) | 2.79
COc1ccc(CCNC(=O)Cc2cc(OC)c(OC)cc2[N+](=O)[O-])cc1OC | 12.2
CC(=O)Nc1ccc(NS(=O)(=O)c2c(Cl)cccc2Cl)cc1 | 7.47
CCOc1ccc(C(CC(=O)O)NS(=O)(=O)c2ccc(C)cc2)cc1OC (stereo not shown) | 9.56
CC1C/C(=N/NC(=O)c2ccc(CSc3nc4ccccc4[nH]3)cc2)CC(C)(C)C1 (stereo not shown) | 6.55
CC(C)SCCCCOc1ccc2ccccc2c1 | 1.42
Cn1cccc1C(=O)NNC(=O)COc1ccccc1Cl | 3.95
Oc1ccc(/C=N/NC2=NCCCCC2)cc1 | 2.72
C#CCOCCOCCOCCNc1nc(N2CCN(C(=O)Cn3cc(CCC[NH+]=C(N)N)nn3)CC2)nc(N2CCN(C(=O)[C@H]([C@@H](C)CC)n3cc(CCCC[NH3+])nn3)CC2)n1.[Cl-] | 3.44
Cl.O=C(O)c1ccc(CNCc2ccc(F)cc2)cc1 | 15.3
ClC1(Cl)CC1Cn1cnc2ccccc21 (stereo not shown) | 14
O=C(/C=C/c1ccc2ccccc2n1)c1cc(Cl)ccc1O | 16
COc1ccccc1CNC(=O)CN1C(=O)NC2(CCCC2)C1=O | 10.2

SMILES | hERG current change (%, negative = inhibition) at 1uM [%]
COc1cc(NC(=S)NC(=O)c2cccs2)ccc1NC(=O)C(C)C | 5.78
CCOc1ccc(CNCCNC(=O)c2nonc2N)cc1.Cl | 2.76
CNC(=O)Oc1ccc2ncccc2c1 | -1.52
O=C(c1ccccc1C(=O)N1CCN(c2ccccc2)CC1)N1CCN(c2ccccc2)CC1 | -4.1
Nc1nc(NC(=O)Cc2ccccc2)nn1-c1ccccc1 | 7.38
CCCCC(=O)Nc1ccc2c(c1)nc(CCN1CCN(C)CC1)n2C | 24.7
O=C(COC(=O)Cc1c(Cl)cccc1Cl)NCCC1=CCCCC1 | -5.08
Nc1nc(C23CC4CC(CC(Cl)(C4)C2)C3)cs1 | 12.2
Cn1c(N2CCCC2)nc2c1c(=O)n(Cc1ccc(Cl)cc1)c(=O)n2C | 9.35
O=C(O)CC/C(=N/NC(=O)c1ccc(-c2ccccc2)cc1)c1ccccc1 | 2.78
CN(C)C(=S)c1ccc2ccccc2n1 | 14.9
CCC(CO)Nc1ncnc2c1cnn2-c1ccc(OC)cc1 (stereo not shown) | 2.03
Cc1ccc(S(=O)(=O)Nc2n[nH]nc2C(=O)NC2CCCCC2)cc1 | 14.8
Cc1ccc(OCC(=O)NCC(=O)Nc2ccc(F)c(F)c2F)c([N+](=O)[O-])n1 | -0.24
O=C(COC(=O)c1ccc[nH]c1=O)NC1CCCCCC1 | 7.37
Cc1cccc(-c2nsc(SCC(=O)c3ccc(Cl)cc3)n2)c1 | 3.86
Cc1cccc(N2CCN(C(=O)CSc3nnnn3C3CC3)CC2)c1C | 4.46
O=C(/C=C/c1ccc(Cl)cc1Cl)c1ccc[nH]1 | 14.6
O=S(=O)(NCc1ccccc1)c1cccc(S(=O)(=O)N2CCOCC2)c1 | -10.5
COc1ccc(Cn2c(N)c(C#N)c3nc4ccccc4nc32)cc1 | 12.9
Cn1c2ccccc2c2ncn(CCN3CCOCC3)c(=O)c21 | 1.96
COc1ccc([C@H]2CC(=O)C=C(c3ccc(SC)cc3)C2)cc1OC | 16.7

SMILES | hERG current change (%, negative = inhibition) at 1uM [%]
O=c1nc(-c2ccccc2)c(-c2ccccc2)n[nH]1 | 13.4
COc1ccc(Cl)cc1S(=O)(=O)NC(C)C(=O)NCc1ccncc1 (stereo not shown) | 15.5
CC1CCN(c2ccccc2NC(=O)c2cc3ccccc3o2)CC1 | 27.4
COc1ccccc1NS(=O)(=O)c1cccc(C(=O)NCC(c2ccccc2OC)N2CCCC2)c1 (stereo not shown) | -0.407
Cc1ccccc1-c1noc(CCC(=O)NCCc2ccccc2)n1 | 10.4
O=C(Nc1ccc2c(c1)OCO2)OCc1ccccc1 | -3.43
COCCN1Cc2cccc(C(=O)Nc3c(C)cc(C)cc3C)c2C1=O | 5.9
Cc1ccc(O)c(NC(=O)CSc2ccc(Cl)cc2)c1 | 13.4
CCn1c2ccccc2c2cc(NC(=O)c3cccc([N+](=O)[O-])c3)ccc21 | 12.7
COc1cccc(/C(O)=C2\C(=O)C(=O)N(c3ccccn3)C2c2cccc(OC)c2OC)c1 (stereo not shown) | 10.7
CCNc1nc(NCC)n2c(SCC(=O)Nc3ccccc3)nnc2n1 | 5.22
CCc1c(C)nc2ncnn2c1N1CCCC(C(=O)NCCc2ccccc2)C1 (stereo not shown) | -5.89
COCCNc1nc2nonc2nc1N1CCC(N(C)C)C1 (stereo not shown) | 10.8
CCC1COCCS(=O)(=O)N1Cc1cccc(Cl)c1 (stereo not shown) | -0.974
COc1ccc(S(=O)(=O)N2CCCCC2)cc1NC(=O)C1CCCC1 | -1.49
CC1CC(C)(C)N(C(=O)NC2CCCCC2)c2ccccc21 (stereo not shown) | 17.6
Cc1nn(Cc2ccc(Cl)c(Cl)c2)c(C)c1NC(=O)c1sc2ccccc2c1Cl | 16.2
COc1ccc(-c2nc(NC(=O)CSCCO)sc2C)cc1 | 5.01
COc1ccccc1CNC(=O)c1cccc(S(=O)(=O)N2CCN(c3ccc(F)cc3)CC2)c1 | 4.8
C/C(=N\NC(=O)c1ccc(NS(=O)(=O)c2cccs2)cc1)c1ccc(O)cc1O | 8.53
CCCc1nnc(SCC(=O)Nc2ccccc2F)o1 | 9.75
O=C(COc1ccc(Cl)cc1)Nc1ccc2[nH]ncc2c1 | 9.2
